In PubChem BioAssay AID686971 (National Center for Advancing Translational Sciences (NCATS), 2013):
Screen size: about 360,000 compounds; about 7,500 (2.1%) were called active. This list was built around the results that the source calls inconclusive (neither active nor inactive); the mix of calls is not that of the screen. Calls come from the whole dose curve; as a rule, active = well fitted cell-killing curve with a large enough effect; inconclusive = small, poorly fitted or top-dose-only effect, or effect the other way, or another doubt; inactive = no such curve, though single readings can be large or run the other way. Potencies of inconclusive entries are left out as doubtful fits.

Test: qHTS for induction of synthetic lethality in tumor cells producing 2HG: qHTS for the HT-1080-IDH1KD cell line;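 for activity, negative = toxicity: 0% = DMSO wells and -100% = cell-free medium wells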
Details: HT-1080 IDH1 knockdown viability, ATP luminescence, 48 h; activity, negative = toxicity: at 46.1 µM (top of the series) unless noted
Summary of the method: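 Viability of IDH1-knockdown HT-1080 fibrosarcoma cells was assessed by CellTiter-Glo after 48 h at 37 °C with titrated compound; concentration-effect curves were classified by fit quality and response size.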
Potency is the fitted concentration of half-maximal effect; tags give direction and shape of the fitted curve.

SMILES	Potency	activity, negative = toxicity
O=C(CN(Cc1ccccc1)S(=O)(=O)c1ccccc1)N/N=C/c1ccc2c(c1)OCO2	inconclusive [cytotoxic, single point]	–
COc1ccc(COc2ccsc2C(=O)Nc2ccc(Cl)cc2)cc1	inconclusive [cytotoxic, single point]	–
O=[N+]([O-])c1c(NCCO)cc(Sc2nc3ccccc3s2)c2nonc12	active: 3.16 µM	–
Cc1cccc(C)c1NC(=O)C1(C)CSCC(=O)N1Cc1cccc(C(F)(F)F)c1 (stereo unspecified)	inactive	–
CCCN1C(=O)/C(=N\OCC(=O)NC23CC4CC(CC(C4)C2)C3)c2ccccc21	inactive	–
Cc1ccccc1CSc1nc2n(n1)C(c1cccs1)C1=C(CCCC1=O)N2 (stereo unspecified)	inconclusive [cytotoxic, single point]	–
CCN(C(=O)c1coc(=O)c(Br)c1)c1ccc2c(c1)OCO2	inconclusive [cytotoxic, single point]	–
O=C(CN1CCC(C(=O)c2ccc(Cl)cc2)CC1)Nc1ccc2c(c1)OCCO2	inconclusive [cytotoxic, single point]	–
CC1(Oc2ccccc2-c2ccno2)CCN(Cc2ccc(-c3ccccc3)o2)C1 (stereo unspecified)	inconclusive [cytotoxic, single point]	–
CN(C)CCCN(C(=O)c1cccs1)c1nc(-c2ccccc2)cs1	inconclusive [cytotoxic, single point]	–
COc1cc2nc(/C=C/c3cc(OC)c(OC)c(OC)c3)sc2cc1SC	inconclusive [cytotoxic, full curve]	–
CSc1ccccc1NC(=O)C1CCCN(S(C)(=O)=O)C1 (stereo unspecified)	inconclusive [rising, single point]	–
O=[N+]([O-])c1cccc(S(=O)(=O)N2CCN(S(=O)(=O)N3CCOCC3)CC2)c1	inactive	–
COCCNC(=O)c1ccccc1N(Cc1ccccc1)S(=O)(=O)c1ccc(C)cc1	inactive	–
COc1ccc(NC(=O)NC2(C(=O)N3CCN(C)CC3)CCCCC2)cc1	inactive	–
CCOc1cc(CNCCSc2nnnn2C)cc(Br)c1OCc1ccccc1	inconclusive [cytotoxic, single point]	–
CC(C)=CCc1ccc(O)c(=O)cc1C(C)C	inconclusive [cytotoxic, partial curve]	–
CCOC(=O)Cc1csc(NC(=O)Nc2cccc(Cl)c2)n1	inconclusive [cytotoxic, single point]	–
Cc1ccc(NC(=O)c2cc(S(=O)(=O)NCCc3ccccc3)ccc2F)cc1Cl	active: 16.4 µM	–
Clc1cccc(Cl)c1Cn1cnc(=NCc2ccco2)c2[nH]cnc21	inconclusive [cytotoxic, single point]	–
COc1ccc(C(=O)CSc2nc(-c3ccccn3)nc(C)c2Cl)cc1	inconclusive [cytotoxic, partial curve]	–
CCN1C(=O)/C(=C/N(C(C)=O)c2ccccc2)N(c2ccccc2)C1=S	inconclusive [cytotoxic, single point]	–
COc1ccc(NC(=O)C2CCCNC2)cc1OCC(C)C (stereo unspecified)	inconclusive [cytotoxic, partial curve]	–

SMILES	Potency	activity, negative = toxicity
Cc1cc(C(=O)OC(C)C(=O)Nc2cccc(S(=O)(=O)N3CCOCC3)c2)c(C)o1 (stereo unspecified)	–	inconclusive: -31.3% [cytotoxic]
CCOC(=O)N1CCN(C(=O)CSc2cc(C)nc3c(-c4ccccc4OC)c(C)nn23)CC1	active: 11.2 µM	–
O=C1C(=O)N(c2nccs2)C(c2ccccc2F)/C1=C(\O)c1ccc2c(c1)OCCO2 (stereo unspecified)	inconclusive [cytotoxic, full curve]	–
Fc1ccc(C2c3cccn3CCN2C(=S)Nc2cccc(Br)c2)cc1 (stereo unspecified)	inconclusive [cytotoxic, single point]	–
Cc1ccc2c(CN3CCN(CCO)CC3)cc(=O)oc2c1C	inconclusive [cytotoxic, single point]	–
Cc1cccc2sc(N(CCCN(C)C)C(=O)c3ccc(Cl)s3)nc12	inconclusive [cytotoxic, single point]	–
Oc1ccc(/C=C/c2ccc3ccccc3n2)cc1	inactive	–
O=S(=O)(Nc1ccc(Cl)nn1)c1ccccc1	inactive	–
COc1ccc(C(=O)COC(=O)c2ccn(C)n2)cc1	inactive	–
O=C(CSc1nnc(SCc2ccc(Cl)cc2)s1)N/N=C/c1c(Cl)cccc1Cl	inconclusive [cytotoxic, single point]	–
CCCCN(C)C/C(O)=C(\C#N)c1nc(-c2ccccc2)cs1	inactive	–
Cc1ccc(-c2cc(C(=O)N/N=C/c3c(C)nn(-c4ccccc4)c3C)n[nH]2)s1	active: 1.84 µM	–
Cn1ccc2c(/C=C/c3ccc(F)cc3)cc3c(c21)C1CCC3O1 (stereo unspecified)	inconclusive [cytotoxic, single point]	–
O=C(/C(=N\Nc1ccc([N+](=O)[O-])cc1)Sc1nnnn1-c1ccccc1)c1ccccc1	active: 23.1 µM	–
CCc1cc(=O)oc2c(C)c(OCC(=O)NCCCn3ccnc3)ccc12	inactive	–
CCN(CC)CCCNC(=O)CSc1c2c(nc3cc(Cl)ccc13)CCCC2	active: 23.1 µM	–
O=C(NCc1ccco1)c1ccc(Cn2c(=S)[nH]c3ccccc3c2=O)cc1	inconclusive [cytotoxic, single point]	–
CCC(=O)c1ccc(OCC(=O)NCCC2=CCCCC2)c(OC)c1	inactive	–
Cc1nccc(-c2cccc(N/N=C(\C#N)C(=O)c3ccccc3)c2)n1	inconclusive [cytotoxic, single point]	–
O=C(c1cccs1)N1CCCN(c2ncnc3scc(-c4ccccc4)c23)CC1	inconclusive [cytotoxic, partial curve]	–
Cn1c(S(=O)(=O)c2ccc([N+](=O)[O-])cc2)nc(Br)c1Br	inconclusive [cytotoxic, single point]	–
COc1ccc(CN2CCNC(=O)C2CC(=O)N(C)CC2CCOCC2)cc1C (stereo unspecified)	inactive	–
CCOc1ccc(Nc2ncnc3c2cnn3Cc2ccccc2)cc1	inconclusive [cytotoxic, single point]	–
